In the supplement of paper PMC10126150 one finds switch fluorescence ratio data, which are given here for 79 sequences.

Values marked as one replicate rest on one cluster of the flow cell; about a third of the high ones do not repeat.

The test system of the series is ATP. In words: switch fluorescence ratio, 500 uM ATP over buffer (Cy3 cluster intensity, sum of 5 cycles each) (fold (ratio)); higher = stronger signal-on switching upon ATP binding; sequences stand for … in TCGTCGGCAGCGTCAGATGTGTATAAGAGACAGTTTTTTTTTTTTTTTTTTTTTTTTT…TC. Conditions: aptamer strand: ATP DNA aptamer (quencher-CACCTGGGGGAGTATTGCGGAGGAAGG + anchor), 100 nM annealed; ATP concentration: 500 uM; one replicate. The method, boiled down: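 The quencher-labelled ATP aptamer, at 100 nM, was annealed to Cy3-labelled switching-strand clusters on a modified Illumina MiSeq flow-cell. The clusters were imaged in selection buffer, then after 15 min with 500 uM ATP at 22 °C, and this buffer/ATP cycle ran five times with NaOH stripping and re-annealing between runs. Per-cluster fluorescence ratios, summed target-cycle over summed buffer-cycle Cy3 intensity, were averaged per switch-domain sequence. Clusters outside 100-1000 RFU were excluded.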
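Also: ATP exposure 15 min at 22 °C before imaging.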

As for GGGTGTCGC, the switch fluorescence ratio was determined as 0.994.
Consider GCTCGGCGTG, for which the switch fluorescence ratio was 1.04.
Consider TTGTTGAACT, for which the switch fluorescence ratio was found to be 1.01.
Under CCTGGGCGCG stands 0.992; under GCCCCATGA, 1.03; under CTAAGAACAG, 0.997.
As to CGCCCGGCTT, the switch fluorescence ratio was 1.03.
The result for GTGGGACA reads 0.969.
The result for AGGATTCAGC reads 0.979; that for TAGGATAGGC, 0.985; that for ACTCTATTAA, 1.02.
On to TGCAGCCGAA, for which the switch fluorescence ratio turned out to be 1.03.
Turning to TAAGTTTAGC, the switch fluorescence ratio is 1.02.
Under TCCTAAATCT stands 1.08; under TGAGTTTTAT, 0.992; under GTATGGGCTG, 1.05.
Under GAATTTTACG stands 0.994; under CTGTACGATA, 1.11.
AAGAAGACCT: the switch fluorescence ratio worked out at 1.17.
The result for GCTAGCGTGA reads 0.959; that for AGCATCGGA, 0.953; that for TCTCCATGGT, 0.98.
The result for GAGCCACCCC reads 1.03.
TGCCATCATT: the switch fluorescence ratio was 0.949.
Under CAGTTCCAAT stands 1.01; under CCAGATAGTT, 0.964.
As to TTGCGAGAAA, the switch fluorescence ratio was 1.01.
Under CGGGGTATAC stands 1.16; under AAGTGATCC, 1.1; under TTTTCGTGAC, 1.06.
Under CCCCATTTGG stands 1.09; under ATCGAGATCA, 1.02; under GAGGTCTGCA, 1.02.
As for TTGGTCTGTG, the switch fluorescence ratio was determined as 0.986.
As for GATGGCCCAT, the switch fluorescence ratio is 1.05.
The result for TAAATTTCCT reads 1.11; that for CACCGTCTGC, 1.05.
The result for ATAATGCGCG reads 0.959; that for CGTCTGAACG, 0.979.
For the sequence TGAGCACAA, the switch fluorescence ratio was determined as 1.13.
Take GCAGAAGCGG: the switch fluorescence ratio amounted to 0.994.
With ACAAATACCG, the switch fluorescence ratio was 1.02.
The result for TAGAGTAGTT reads 1.01.
With GTCCACAGTG, the switch fluorescence ratio came to 1.6.
The result for GGAATAGGTG reads 1.15; that for AAAAGAACTT, 1; that for CATTCGGTCG, 1.04.
Under GAGTACTAAG stands 1.05.
The result for GTCTAGATAT reads 0.997.
On to CGAATATCAG, for which the switch fluorescence ratio came to 0.979.
Under CGTTTTGA stands 1.01; under GGGGCGTTG, 1.01.
Under GGGGCCCAAT stands 1.08.
TCGGGTGAAA: the switch fluorescence ratio came to 1.01.
For the sequence CGACTAATTT, the switch fluorescence ratio was 1.01.
Turning to ACCTGATTGT, the switch fluorescence ratio was 1.02.
The result for GTTAAAGTTG reads 0.947; that for GTGACTCAC, 1.06.
The result for CGGTGCCGCC reads 0.946; that for GTTGTATGAG, 1; that for TTTGATGACC, 0.922.
The result for ACGCGTCACC reads 0.956; that for CCCTACAGGA, 1.07.
Regarding ACTAATATGG, the switch fluorescence ratio was found to be 1.12.
As for AGTCGCTTTC, the switch fluorescence ratio came out at 1.05.
Turning to TTTAGGACG, the switch fluorescence ratio stood at 0.925.
The result for GCGATTGACG reads 0.833; that for TGAGATTAGA, 0.969.
As to CGAGCCTCAA, the switch fluorescence ratio amounted to 1.05.
With ATAGTGGATC, the switch fluorescence ratio was 1.06.
Under TAGGGGACCA stands 1.05; under AGCAAGACAA, 1.82.
Under GAGTTAAAAT stands 1.04.
As to GCTTATATGA, the switch fluorescence ratio came out at 1.01.
Under CGTAGCCCCC stands 1.87; under ATGCTTAAGA, 1.
Under TTCCGTGTGA stands 1.01; under GTGGACATTG, 1.01; under TTTAGTGGAC, 0.999.
